Test results published in patent US20250353891A1 (MEDIMMUNE LIMITED, priority 2022, published 2025).
Not every detail of the peptide structures is certain; ends, links or a residue may be inferred. Starred links: 1 amine or outer side, 2 acyl side, 3 side chain; linkers in the order of their positions; H or OH if unused. Non-standard residues stand in square brackets, D forms with d. Residues, ends and D or L forms follow the SMILES beside them. Groups on a side chain read outwards from the residue. *: point of attachment. C20 diacid = O=C(O)CCCCCCCCCCCCCCCCCCC(=O)*; C18 diacid = O=C(O)CCCCCCCCCCCCCCCCC(=O)*; γGlu = O=C(O)[C@H](CCC(=O)[*:2])N[*:1]; Palmitoyl = CCCCCCCCCCCCCCCC(=O)*; αMeF = C[C@](N)(Cc1ccccc1)C(=O)O; PEG4 = NCCOCCOCCOCCOCCC(=O)O; PEG2 = NCCOCCOCCC(=O)O; AEEA = NCCOCCOCC(=O)O; Aib = CC(C)(N)C(=O)O

Target: human GLP-1 receptor (hGLP-1R) (Homo sapiens, UniProt P43220)
Sequence (P43220 24-463): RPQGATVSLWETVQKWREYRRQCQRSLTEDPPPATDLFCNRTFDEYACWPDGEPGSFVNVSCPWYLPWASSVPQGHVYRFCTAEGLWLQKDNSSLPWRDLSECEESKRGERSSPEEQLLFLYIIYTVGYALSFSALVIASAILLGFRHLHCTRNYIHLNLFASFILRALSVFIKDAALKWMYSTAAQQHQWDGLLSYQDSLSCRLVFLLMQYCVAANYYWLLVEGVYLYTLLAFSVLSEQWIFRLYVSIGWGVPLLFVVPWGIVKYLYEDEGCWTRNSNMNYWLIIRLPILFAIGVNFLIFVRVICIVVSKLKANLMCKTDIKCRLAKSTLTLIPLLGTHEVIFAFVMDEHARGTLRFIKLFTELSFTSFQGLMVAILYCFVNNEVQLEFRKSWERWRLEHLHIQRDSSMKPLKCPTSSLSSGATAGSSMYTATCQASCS
Test: cAMP production (HTRF) in CHO cells expressing hGLP-1R
Assay type: cell-based
Parameters: expressed in transfected cells
Settings: % GLP-1R activity relative to GLP-1 / % GlucR activity relative to glucagon
Procedure: Cells were re-suspended in assay buffer at a batch-dependent optimized concentration (typically hGLP-1R cells at 1×10^5 cells/mL, hGCGR cells at 2×10^5 cells/mL).
Cells were added to the assay plate using a multidrop dispenser and incubated at room temperature for 30 minutes before measuring the cAMP level using a cAMP dynamic 2 homogeneous time resolved Fluorescence (HTRF) kit (Cisbio Bioassays #62AM4PEJ) following the two-step protocol as per manufacturer's recommendations. In brief, anti-cAMP cryptate (donor fluorophore) and cAMP-d2 (acceptor fluorophore) were made up separately by diluting each 1 in 20 in conjugate and lysis buffer provided in the kit. Anti-CAMP cryptate was added to all wells of the assay plate, followed by cAMP-d2 added to all wells except non-specific binding (NSB) wells (to which conjugate and lysis buffer was added).
Data was transformed to % Delta F as described in the manufacturer's guidelines and analyzed by 4-parameter logistic fit to determine EC50 values.

| SMILES | % Relative Potency Ratio |
| --- | --- |
| CC[C@H](C)[C@H](NC(=O)C(C)(C)NC(=O)[C@H](CCCCNC(=O)COCCOCCNC(=O)COCCOCCNC(=O)CC[C@H](NC(=O)CC[C@H](NC(=O)CCCCCCCCCCCCCCCCC(=O)O)C(=O)O)C(=O)O)NC(=O)[C@@H](NC(=O)[C@](C)(Cc1ccccc1)NC(=O)[C@H](CC(=O)O)NC(=O)[C@H](CCC(N)=O)NC(=O)[C@H](C)NC(=O)[C@H](C)NC(=O)[C@H](CCCNC(=N)N)NC(=O)[C@H](CO)NC(=O)[C@H](CC(=O)O)NC(=O)[C@H](CC(C)C)NC(=O)[C@](C)(Cc1ccccc1)NC(=O)[C@H](CCCCN)NC(=O)[C@H](CO)NC(=O)[C@@H](NC(=O)[C@H](CC(=O)O)NC(=O)[C@H](CO)NC(=O)[C@@H](NC(=O)[C@](C)(Cc1ccccc1)NC(=O)[C@H](CO)NC(=O)CNC(=O)[C@H](Cc1c[nH]cn1)NC(=O)C(C)(C)NC(=O)[C@@H](N)Cc1c[nH]cn1)[C@@H](C)O)C(C)C)C(C)C)C(=O)N[C@@H](C)C(=O)N[C@@H](CC(N)=O)C(=O)N[C@H](C(N)=O)[C@@H](C)O [Peptide 372] (H-H[Aib]HGS[αMeF]TSDVSK[αMeF]LDSRAAQD[αMeF]VK([AEEA-AEEA-γGlu-γGlu-C18 diacid])[Aib]IANT-NH2; N-terminus assumed) | 1.0 |
| CC[C@H](C)[C@H](NC(=O)C(C)(C)NC(=O)[C@H](CCCCNC(=O)COCCOCCNC(=O)COCCOCCNC(=O)CC[C@H](NC(=O)CC[C@H](NC(=O)CCCCCCCCCCCCCCCCCCC(=O)O)C(=O)O)C(=O)O)NC(=O)[C@@H](NC(=O)[C@](C)(Cc1ccccc1)NC(=O)[C@H](CC(=O)O)NC(=O)[C@H](CCC(N)=O)NC(=O)[C@H](C)NC(=O)[C@H](C)NC(=O)[C@H](CCCNC(=N)N)NC(=O)[C@H](CO)NC(=O)[C@H](CC(=O)O)NC(=O)[C@H](CC(C)C)NC(=O)[C@](C)(Cc1ccccc1)NC(=O)[C@H](CCCCN)NC(=O)[C@H](CO)NC(=O)[C@@H](NC(=O)[C@H](CC(=O)O)NC(=O)[C@H](CO)NC(=O)[C@@H](NC(=O)[C@](C)(Cc1ccccc1)NC(=O)[C@H](CO)NC(=O)CNC(=O)[C@H](Cc1c[nH]cn1)NC(=O)C(C)(C)NC(=O)[C@@H](N)Cc1c[nH]cn1)[C@@H](C)O)C(C)C)C(C)C)C(=O)N[C@@H](C)C(=O)N[C@@H](CC(N)=O)C(=O)N[C@H](C(=O)NCC(=O)NCC(N)=O)[C@@H](C)O [Peptide 376] (H-H[Aib]HGS[αMeF]TSDVSK[αMeF]LDSRAAQD[αMeF]VK([AEEA-AEEA-γGlu-γGlu-C20 diacid])[Aib]IANTGG-NH2) | 10.8 |
| CCCCCCCCCCCCCCCC(=O)N[C@@H](CCC(=O)NCCOCCOCCC(=O)NCCOCCOCCC(=O)NCCCC[C@H](NC(=O)[C@H](CCCCN)NC(=O)[C@H](CO)NC(=O)[C@@H](NC(=O)[C@H](CC(=O)O)NC(=O)[C@H](CO)NC(=O)[C@@H](NC(=O)[C@](C)(Cc1ccccc1)NC(=O)[C@H](CO)NC(=O)CNC(=O)[C@H](CCC(N)=O)NC(=O)C(C)(C)NC(=O)[C@@H](N)Cc1c[nH]cn1)[C@@H](C)O)C(C)C)C(=O)N[C@@H](CC(C)C)C(=O)N[C@@H](CC(=O)O)C(=O)N[C@@H](CO)C(=O)N[C@@H](CCCNC(=N)N)C(=O)N[C@@H](C)C(=O)N[C@@H](C)C(=O)N[C@@H](CCC(N)=O)C(=O)N[C@@H](CC(=O)O)C(=O)N[C@@](C)(Cc1ccccc1)C(=O)N[C@H](C(=O)N[C@@H](CCC(=O)O)C(=O)N[C@@H](Cc1c[nH]c2ccccc12)C(=O)N[C@H](C(=O)N[C@@H](C)C(=O)N[C@@H](CC(N)=O)C(=O)N[C@H](C(N)=O)[C@@H](C)O)[C@@H](C)CC)C(C)C)C(=O)O [Peptide 401] (H-H[Aib]QGS[αMeF]TSDVSKK([PEG2-PEG2-γGlu-Palmitoyl])LDSRAAQD[αMeF]VEWIANT-NH2; N-terminus assumed) | 32.3 |
| CC[C@H](C)[C@H](NC(=O)C(C)(C)NC(=O)[C@H](CCC(N)=O)NC(=O)[C@@H](NC(=O)[C@](C)(Cc1ccccc1)NC(=O)[C@H](CC(=O)O)NC(=O)[C@H](CCC(N)=O)NC(=O)[C@H](C)NC(=O)[C@H](C)NC(=O)[C@H](CCCNC(=N)N)NC(=O)[C@H](CO)NC(=O)[C@H](CC(=O)O)NC(=O)[C@H](CC(C)C)NC(=O)[C@](C)(Cc1ccccc1)NC(=O)[C@H](CCCCN)NC(=O)[C@H](CO)NC(=O)[C@H](CCCCNC(=O)COCCOCCNC(=O)COCCOCCNC(=O)CC[C@H](NC(=O)CCCCCCCCCCCCCCCCC(=O)O)C(=O)O)NC(=O)[C@H](CC(=O)O)NC(=O)[C@H](CO)NC(=O)[C@@H](NC(=O)[C@](C)(Cc1ccccc1)NC(=O)[C@H](CO)NC(=O)CNC(=O)[C@H](Cc1c[nH]cn1)NC(=O)C(C)(C)NC(=O)[C@@H](N)Cc1c[nH]cn1)[C@@H](C)O)C(C)C)C(=O)N[C@@H](C)C(=O)N[C@@H](CC(N)=O)C(=O)N[C@H](C(N)=O)[C@@H](C)O [Peptide 392] (H-H[Aib]HGS[αMeF]TSDK([AEEA-AEEA-γGlu-C18 diacid])SK[αMeF]LDSRAAQD[αMeF]VQ[Aib]IANT-NH2; N-terminus assumed) | 43.8 |
| CCCCCCCCCCCCCCCC(=O)N[C@@H](CCC(=O)NCCOCCOCCC(=O)NCCOCCOCCC(=O)NCCCC[C@H](NC(=O)[C@H](CC(=O)O)NC(=O)[C@H](CO)NC(=O)[C@@H](NC(=O)[C@](C)(Cc1ccccc1)NC(=O)[C@H](CO)NC(=O)CNC(=O)[C@H](CCC(N)=O)NC(=O)C(C)(C)NC(=O)[C@@H](N)Cc1c[nH]cn1)[C@@H](C)O)C(=O)N[C@@H](CO)C(=O)N[C@@H](CCCCN)C(=O)N[C@H](C(=O)N[C@@H](CC(C)C)C(=O)N[C@@H](CC(=O)O)C(=O)N[C@@H](CO)C(=O)N[C@@H](CCCNC(=N)N)C(=O)N[C@@H](C)C(=O)N[C@@H](C)C(=O)N[C@@H](CCC(N)=O)C(=O)N[C@@H](CC(=O)O)C(=O)N[C@@](C)(Cc1ccccc1)C(=O)N[C@H](C(=O)N[C@@H](CCC(=O)O)C(=O)N[C@@H](Cc1c[nH]c2ccccc12)C(=O)N[C@H](C(=O)N[C@@H](C)C(=O)N[C@@H](CC(N)=O)C(=O)N[C@H](C(N)=O)[C@@H](C)O)[C@@H](C)CC)C(C)C)[C@@H](C)CC)C(=O)O [Peptide 396] (H-H[Aib]QGS[αMeF]TSDK([PEG2-PEG2-γGlu-Palmitoyl])SKILDSRAAQD[αMeF]VEWIANT-NH2; N-terminus assumed) | 40.2 |
| CC[C@H](C)[C@H](NC(=O)C(C)(C)NC(=O)[C@H](CCC(N)=O)NC(=O)[C@@H](NC(=O)[C@](C)(Cc1ccccc1)NC(=O)[C@H](CC(=O)O)NC(=O)[C@H](CCC(N)=O)NC(=O)[C@H](C)NC(=O)[C@H](C)NC(=O)[C@H](CCCNC(=N)N)NC(=O)[C@H](CO)NC(=O)[C@H](CC(=O)O)NC(=O)[C@H](CC(C)C)NC(=O)[C@H](CCCCNC(=O)COCCOCCNC(=O)COCCOCCNC(=O)CC[C@H](NC(=O)CC[C@H](NC(=O)CCCCCCCCCCCCCCCCCCC(=O)O)C(=O)O)C(=O)O)NC(=O)[C@H](CCCCN)NC(=O)[C@H](CO)NC(=O)[C@@H](NC(=O)[C@H](CC(=O)O)NC(=O)[C@H](CO)NC(=O)[C@@H](NC(=O)[C@](C)(Cc1ccccc1)NC(=O)[C@H](CO)NC(=O)CNC(=O)[C@H](Cc1c[nH]cn1)NC(=O)C(C)(C)NC(=O)[C@@H](N)Cc1c[nH]cn1)[C@@H](C)O)C(C)C)C(C)C)C(=O)N[C@@H](C)C(=O)N[C@@H](CC(N)=O)C(=O)N[C@H](C(N)=O)[C@@H](C)O [Peptide 405] (H-H[Aib]HGS[αMeF]TSDVSKK([AEEA-AEEA-γGlu-γGlu-C20 diacid])LDSRAAQD[αMeF]VQ[Aib]IANT-NH2; N-terminus assumed) | 16.3 |
| CCCCCCCCCCCCCCCCCC(=O)N[C@@H](CCC(=O)N[C@@H](CCC(=O)NCCOCCOCCC(=O)NCCOCCOCCC(=O)NCCCC[C@H](NC(=O)[C@H](CCCCN)NC(=O)[C@H](CO)NC(=O)[C@@H](NC(=O)[C@H](CC(=O)O)NC(=O)[C@H](CO)NC(=O)[C@@H](NC(=O)[C@](C)(Cc1ccccc1)NC(=O)[C@H](CO)NC(=O)CNC(=O)[C@H](CCC(N)=O)NC(=O)[C@H](CO)NC(=O)[C@@H](N)Cc1c[nH]cn1)[C@@H](C)O)C(C)C)C(=O)N[C@@H](CC(C)C)C(=O)N[C@@H](CC(=O)O)C(=O)N[C@@H](CO)C(=O)N[C@H](C(=O)N[C@@H](C)C(=O)N[C@@H](C)C(=O)N[C@@H](CCC(N)=O)C(=O)N[C@@H](CC(=O)O)C(=O)N[C@@](C)(Cc1ccccc1)C(=O)N[C@H](C(=O)N[C@@H](CCC(=O)O)C(=O)N[C@@H](Cc1c[nH]cn1)C(=O)N[C@@H](CC(C)C)C(=O)N[C@@H](C)C(=O)N[C@@H](CC(N)=O)C(=O)N[C@H](C(N)=O)[C@@H](C)O)C(C)C)C(C)(C)CCNC(=N)N)C(=O)O)C(=O)O [Peptide 404, HSQGS(αMePhe)TSDVSKK((PEG)2-(PEG)2-γE-γE-Stearoyl)13LDS(β-dimethylArg)AAQD(αMePhe)VEHLANT-amide] | 7.6 |

Same assay, conditions: Table 7; % GLP-1R activity relative to GLP-1 / % GlucR activity relative to glucagon

| SMILES | % Relative Potency Ratio |
| --- | --- |
| CC[C@H](C)[C@H](NC(=O)C(C)(C)NC(=O)[C@H](CCC(N)=O)NC(=O)[C@@H](NC(=O)[C@](C)(Cc1ccccc1)NC(=O)[C@H](CC(=O)O)NC(=O)[C@H](CCCCNC(=O)CCOCCOCCOCCOCCNC(=O)CC[C@H](NC(=O)CC[C@H](NC(=O)CCCCCCCCCCCCCCCCC(=O)O)C(=O)O)C(=O)O)NC(=O)[C@H](C)NC(=O)[C@H](C)NC(=O)[C@H](CCCNC(=N)N)NC(=O)[C@H](CO)NC(=O)[C@H](CC(=O)O)NC(=O)[C@H](CC(C)C)NC(=O)[C@](C)(Cc1ccccc1)NC(=O)[C@H](CCCCN)NC(=O)[C@H](CO)NC(=O)[C@@H](NC(=O)[C@H](CC(=O)O)NC(=O)[C@H](CO)NC(=O)[C@@H](NC(=O)[C@](C)(Cc1ccccc1)NC(=O)[C@H](CO)NC(=O)CNC(=O)[C@H](Cc1c[nH]cn1)NC(=O)C(C)(C)NC(=O)[C@@H](N)Cc1c[nH]cn1)[C@@H](C)O)C(C)C)C(C)C)C(=O)N[C@@H](C)C(=O)N[C@@H](CC(N)=O)C(=O)N[C@H](C(N)=O)[C@@H](C)O [Peptide 263] (H-H[Aib]HGS[αMeF]TSDVSK[αMeF]LDSRAAK([PEG4-γGlu-γGlu-C18 diacid])D[αMeF]VQ[Aib]IANT-NH2) | 5.0 |
